The results in this text go back to ChEMBL document CHEMBL4888484, “Replenishing the malaria drug discovery pipeline: Screening and hit evaluation of the MMV Hit Generation Library 1 (HGL1) against asexual blood stage Plasmodium falciparum ,using a nano luciferase reporter read-out” (2022).

Hit rate of the full screen: of about 150,000 compounds, about 540 (0.36%) showed an effect of 50% or more. The list shows a part of the results.

In the experiment the test system is Plasmodium falciparum. The experiment is described as follows: Primary screen in NF54 nanoGlo assay, in single point, at 2uM, 72h; a lower Z score goes with more inhibition. The class given is functional, Erythrocyte. The note with it: timepoint 72 hour.
Take `CC(C)CCn1cc(-c2n[nH]c(C(=O)N(C)C)n2)cn1`: the “% Inhibition” value was 4% and the Z score is -0.52.

With `CC(C)COC1CCN(S(=O)(=O)C[C@H]2CCN(C(=O)OCc3ccccc3)C2)CC1`, the “% Inhibition” value is listed as -1% and the Z score was determined as 0.06.

With `CCO[C@H]1C[C@@H](NC(=O)Nc2c(C)noc2C)C1`, the “% Inhibition” value is recorded as 33% and the Z score is listed as -3.79.

In the case of `COc1ccsc1S(=O)(=O)N(C)OCc1ccccc1`, the “% Inhibition” value was -12% and the Z score was 2.01.

`COc1cc(CC2CN(c3ncnc4cc(Cl)ccc34)C2)cc(OC)c1`: the “% Inhibition” value is given as -1% and the Z score is listed as 0.23.

On to `COc1ccc(C[C@@]2(CCC(=O)N3CCN(Cc4cccc(C)c4)C(=O)C3)CCC(=O)N2)c(F)c1`, for which the “% Inhibition” value is 4% and the Z score is listed as -0.41.

As to `CC[C@H](C)N(Cc1ccc(OC)c(OS(=O)(=O)c2cccc(C(F)(F)F)c2)c1)C(=O)Nc1ccccc1OC`, the “% Inhibition” value was -6% and the Z score stood at 1.07.

With `O=C(Cn1ccc2ccc(N3CCOCC3)nc21)N1CCN(c2cccc(Cl)c2)CC1`, the “% Inhibition” value is -18% and the Z score is given as 2.46.

For `CCC(=O)N1CCC(NCc2cccc3[nH]ccc23)C(C)C1` (centres undefined), the “% Inhibition” value is listed as -11% and the Z score was 1.35.

Consider `Cc1ccc(CNC(=O)C[C@@H]2ON(C)C(=O)N2c2ccc(Cl)cc2)cc1`, for which the “% Inhibition” value is -10% and the Z score was determined as 1.32.

Turning to `COc1ccc(NC(=O)c2cc(O)ncn2)c(OC)c1`, the “% Inhibition” value is -12% and the Z score is listed as 1.93.

In the case of `CO[C@@]12CC[C@H](O)C[C@@H]1N(C(=O)c1c[nH]c(C)cc1=O)CC2`, the “% Inhibition” value is given as -22% and the Z score is 2.79.

Consider `O=C(NCC1CCC2(CCOCC2)C1O)c1ccsc1` (centres undefined), for which the “% Inhibition” value was -15% and the Z score is listed as 2.03.

As to `CCOC(=O)c1cc2n(n1)C[C@@](C)(C(=O)NC1CCC(C)CC1)N(Cc1cccc(C)c1)C2=O` (some centres undefined), the “% Inhibition” value is -7% and the Z score was 1.14.

On to `O=C(NCc1ccoc1)c1ccc2nc(-c3ccc(F)cc3)cn2c1`, for which the “% Inhibition” value is reported as -24% and the Z score was found to be 2.4.

On to `O=C1O[C@]2(CCCN(C(=O)C3CCC3)C2)c2ccccc21`, for which the “% Inhibition” value is reported as -4% and the Z score is reported as 0.51.

In the case of `O=C(c1cnsn1)N1CCO[C@H](c2ccccc2)CC1`, the “% Inhibition” value came out at 1% and the Z score is -0.07.

`O=C(Nc1ccc(C(F)(F)F)cc1)N1CCN(c2nc(-c3ccco3)nc3cc(Cl)ccc23)CC1`: the “% Inhibition” value was -4% and the Z score was 0.59.

As for `COCCc1nsc(NCC2(O)CCCCC2)n1`, the “% Inhibition” value is on record as -8% and the Z score is 0.8.

In the case of `Cc1cc(=O)c(C(=O)O[C@H](c2ccccc2C)C(F)(F)F)c[nH]1`, the “% Inhibition” value worked out at 4% and the Z score is -0.53.

Regarding `COc1ccc2c(c1)CCCN(C(=O)c1c[nH]c(C)cc1=O)C2`, the “% Inhibition” value is reported as 12% and the Z score is recorded as -1.43.

In the case of `CN(C)c1ccc(C(=O)N2CCC3(CC2)C[C@H](O)CNC3=O)cc1`, the “% Inhibition” value is given as -11% and the Z score came to 1.45.

On to `CNC(=O)[C@@H](NS(=O)(=O)c1cc(Cl)ccc1C)C(C)C`, for which the “% Inhibition” value is -14% and the Z score is 2.28.

For the molecule `Cc1csc(CNC(C)CC(O)c2cccs2)n1` (centres undefined), the “% Inhibition” value is on record as -8% and the Z score is 1.04.

Turning to `Cc1ccc([C@H]2c3ccccc3CCN2C(=O)C2CCCCC2)cc1`, the “% Inhibition” value is recorded as -5% and the Z score turned out to be 0.8.

`O=C(NC1CCN(C2CC2)CC1)c1ccc(O)c(Cl)c1`: the “% Inhibition” value came to 4% and the Z score is -0.37.

In the case of `Cn1cccc(C(=O)NC2CC3C(=O)Nc4ccccc4N3C2)c1=O` (centres undefined), the “% Inhibition” value is on record as -14% and the Z score was 2.66.

In the case of `C[C@H](O)c1onc(-c2cccs2)c1C(=O)N(C)Cc1ccccc1`, the “% Inhibition” value is listed as -2% and the Z score was 0.24.

Regarding `CCn1c(-c2cc(NC(=O)CC(C)C)[nH]n2)cc2cc(OC)ccc21`, the “% Inhibition” value is given as -7% and the Z score is 0.85.

Turning to `CC(C)(C)OC(=O)N1CCC2(CC1)N=C(c1cccs1)C(=O)N2Cc1cccc(Cl)c1`, the “% Inhibition” value is -12% and the Z score was 1.48.

Take `CC(C)c1nnc(CN2CCS(=O)(=O)C3CCCC32)s1` (centres undefined): the “% Inhibition” value is 1% and the Z score is reported as -0.13.

Turning to `Cc1ccc(OCCNCCO)c(Br)c1`, the “% Inhibition” value is listed as -22% and the Z score turned out to be 2.97.

Regarding `CCCCS(=O)(=O)NCc1nc(C(C)(C)C)cs1`, the “% Inhibition” value is given as -9% and the Z score was found to be 1.17.

As for `Cc1ccc(-c2ccccc2CNc2cn(C)nn2)o1`, the “% Inhibition” value is -16% and the Z score was 2.23.

Turning to `NC(=O)C1CCN(C(=O)c2ccc3nc(-c4ccccc4)cn3c2)CC1`, the “% Inhibition” value is listed as -11% and the Z score amounted to 1.9.

Consider `Cc1ncoc1C(=O)N1CCC[C@H](CC(F)(F)F)C1`, for which the “% Inhibition” value is given as -12% and the Z score was 1.59.

As to `CN(C)[C@@H](CNS(=O)(=O)c1ccc(-n2cccn2)cc1)c1cc2ccccc2o1`, the “% Inhibition” value was -4% and the Z score is 0.51.

Regarding `COc1ccnc(CN(C)Cc2cccc(N(C)C)c2)c1`, the “% Inhibition” value is listed as 5% and the Z score is listed as -0.95.

As for `CCc1noc(-c2nn(C)c3c2CN(C(=O)C(CC)CC)C3)n1`, the “% Inhibition” value was -3% and the Z score is recorded as 0.58.

Regarding `CC(=O)N1CCc2cc(CNC(=O)COc3ccccc3)ccc21`, the “% Inhibition” value is on record as 5% and the Z score is listed as -0.95.

On to `COc1ccccc1C(=O)N[C@](C)(CO)CCF`, for which the “% Inhibition” value is given as 12% and the Z score is -1.34.

In the case of `CC(C)Cn1cc(C(=O)N2CCCCC[C@H]2c2ncon2)cn1`, the “% Inhibition” value is listed as 4% and the Z score was -0.8.
